Laboratory results as given in publication PMC4336329 (PLoS ONE, 2015).
Out of some 310,000 compounds screened, about 2,200 (0.71%) showed an effect of 50% or more. Effects have a minus sign here. The list shows a part of the results.

Molecular target: human ether-à-go-go-related gene (hERG) potassium channel (human, UniProt Q12809)
Experiment: primary screen, population patch clamp on CHO cells stably expressing hERG

Chain of human ether-à-go-go-related gene (hERG) potassium channel (Q12809 whole entry, looked up): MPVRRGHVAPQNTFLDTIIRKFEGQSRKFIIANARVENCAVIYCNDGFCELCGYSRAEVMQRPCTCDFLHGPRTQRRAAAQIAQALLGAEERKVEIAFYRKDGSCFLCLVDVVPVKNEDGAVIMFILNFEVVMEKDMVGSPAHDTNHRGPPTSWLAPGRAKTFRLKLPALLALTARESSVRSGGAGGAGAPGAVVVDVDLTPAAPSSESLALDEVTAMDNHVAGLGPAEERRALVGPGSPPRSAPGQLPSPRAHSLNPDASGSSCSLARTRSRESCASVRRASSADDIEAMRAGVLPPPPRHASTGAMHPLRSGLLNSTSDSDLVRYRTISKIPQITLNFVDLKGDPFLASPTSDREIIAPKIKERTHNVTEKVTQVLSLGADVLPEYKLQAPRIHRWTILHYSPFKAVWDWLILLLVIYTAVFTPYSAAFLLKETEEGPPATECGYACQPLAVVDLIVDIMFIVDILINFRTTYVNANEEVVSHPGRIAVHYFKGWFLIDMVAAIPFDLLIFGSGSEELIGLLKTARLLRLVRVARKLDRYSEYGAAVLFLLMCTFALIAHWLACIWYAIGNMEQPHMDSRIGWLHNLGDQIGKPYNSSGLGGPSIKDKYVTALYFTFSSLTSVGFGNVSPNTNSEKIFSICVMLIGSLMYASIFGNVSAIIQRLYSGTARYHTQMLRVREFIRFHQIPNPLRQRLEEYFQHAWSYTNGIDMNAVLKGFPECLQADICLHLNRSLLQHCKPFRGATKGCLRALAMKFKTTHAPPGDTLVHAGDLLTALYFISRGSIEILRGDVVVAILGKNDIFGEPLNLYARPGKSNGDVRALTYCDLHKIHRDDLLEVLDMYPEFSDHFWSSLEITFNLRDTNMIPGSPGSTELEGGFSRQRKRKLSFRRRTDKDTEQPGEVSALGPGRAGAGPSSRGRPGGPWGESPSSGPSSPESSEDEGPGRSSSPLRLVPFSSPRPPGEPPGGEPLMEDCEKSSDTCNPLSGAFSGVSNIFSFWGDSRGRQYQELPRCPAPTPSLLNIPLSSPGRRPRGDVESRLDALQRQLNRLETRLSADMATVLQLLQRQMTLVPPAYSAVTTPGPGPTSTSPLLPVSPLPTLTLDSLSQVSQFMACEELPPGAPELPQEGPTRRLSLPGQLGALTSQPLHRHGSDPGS

Row | SMILES | hERG current change (%, negative = inhibition) at 1uM [%]
1 | COc1ccccc1NC(=O)Nc1ccc2[nH]c(=O)[nH]c2c1 | 12.1
2 | Cc1ccc(C(C)C)c(OCC(=O)NN=C2CCCCCCC2)c1 | 1.14
3 | CCC(C)OC(=O)c1c(N)n(Cc2cccs2)c2nc3ccccc3nc12 (stereo not drawn) | 5.19
4 | O=[N+]([O-])c1ccc2c(c1)CNc1ccccc1O2 | 13.2
5 | COc1ccc(OCc2cc(C(=O)NCC(C)(C)N3CCOCC3)no2)c(Cl)c1 | 0.582
6 | O=c1c2ccccc2nc2n1CCO2 | 8.41
7 | COC(=O)c1cc(S(=O)(=O)NCC2CCN(Cc3ccc(C)cc3)CC2)cn1C | -16.9
8 | COC(=O)N(c1ccccc1)P1(=S)OCCO1 | 17.4
9 | CCCSc1ccc([C@@H]2[C@H]3C(=O)N(CC)C(=O)[C@H]3[C@]3(C(=O)OC)CCCN23)cc1.O=C(O)C(F)(F)F | 2.39
10 | COc1ccccc1S(=O)(=O)Cc1ccc(C(=O)N2CCN(c3ccccc3)CC2)o1 | -14.5
11 | CCCCNC(=S)NNC(=O)c1cccnc1 | 13.8
12 | CCOc1ccc(S(=O)(=O)N2CCN(C)CC2)c(C)c1C | 10.2
13 | Nc1ccccc1-[n+]1c(-c2ccccc2)cc(-c2ccccc2)cc1-c1ccccc1.[O-][Cl+3]([O-])([O-])[O-] | 0.0928
14 | O=C(Cc1c[nH]c2ccccc12)Nc1cccc(S(=O)(=O)N2CCCCC2)c1 | 3.12
15 | O=C1CCCN1c1ccc(S(=O)(=O)N2CCCCC2)cc1[N+](=O)[O-] | 10.9
16 | COc1cccc(C(=O)CC(C#N)c2ccc(F)cc2)c1 (stereo not drawn) | 12.5
17 | CCCn1c(/N=C/c2cc(OC)ccc2O)nc2ccccc21 | 10.5
18 | CSCCC(NC(=O)c1ccco1)C(=O)N1CCC(C(N)=O)CC1 (stereo not drawn) | 9.55
19 | CC1(C)Cc2c(sc3ncn(N)c(=N)c23)CO1 | 13.1
20 | COCCOC(=O)c1c(C)oc2ccc(OC(=O)c3ccc4c(c3)OCO4)cc12 | 21.1
21 | C/C(=N\NC(=O)c1cccc(N2CCCC2=O)c1)c1ccc(N)cc1 | 22.4
22 | Cc1cccc(CN2CCCC(C(=O)c3ccc4c(c3)OCO4)C2)n1 (stereo not drawn) | -16.8

Row | SMILES | hERG current change (%, negative = inhibition) at 1uM [%]
23 | CN(C(=O)COC(=O)c1ccc(Cl)c(N)c1)c1ccccc1 | 9.13
24 | Cc1cccnc1NC(=O)C1CCC1 | 16.4
25 | COCCN(C(=O)CSc1n[nH]c(-c2ccc(OC)cc2)n1)c1c(N)n(Cc2ccccc2)c(=O)[nH]c1=O | 10.3
26 | Cc1ccc(S(=O)(=O)Cn2nnnc2C(CC(C)C)N2CCN(c3ccccc3)CC2)cc1 (stereo not drawn) | 21.5
27 | CCc1ccccc1NC(=O)CN1CCN(C(=O)c2cccc(-n3cnnn3)c2)CC1 | -5.51
28 | O=[N+]([O-])c1cccc(CSc2nc3ccccc3[nH]2)c1 | -3.99
29 | CN(C)N1C(=O)CC(C)(c2ccc([N+](=O)[O-])cc2)C1=O (stereo not drawn) | 6.35
30 | CCn1c(SCC(=O)Nc2ccc3c(c2)OCCO3)nnc1-c1cccnc1 | 15.8
31 | O=C(COC(=O)COc1ccc(Br)cc1)Nc1cccnc1Cl | 14.9
32 | Cn1c(N2CCN(c3ccccn3)CC2)nc2c1c(=O)n(Cc1ccccc1Cl)c(=O)n2C | 12.5
33 | O=C1NC(=O)C(CCc2ccncc2)(CCc2ccncc2)C(=O)N1Cc1ccc(F)cc1 | -78.2
34 | COc1cccc2cc(C(=O)N3CCc4ccccc4C3)c(=O)oc12 | 14.7
35 | O=C(C1CC(c2ccc(F)cc2)=NO1)N1CCCCC1 (stereo not drawn) | 3.93
36 | COc1ccc2nc(NC3=NCCN3)sc2c1 | 10.9
37 | COc1ccccc1OCc1n[nH]c(=S)n1Cc1ccccc1 | 14.8
38 | Nc1ccc(NC(=O)c2cccs2)cc1 | 16.9
39 | COc1ccc(CCNC(=O)CCC(=O)N2CCOc3ccccc32)cc1OC | -5.86
40 | CC(=O)Nc1cccc(C(=O)NC2CCCc3c2cnn3-c2ccc(C(C)(C)C)cc2)c1 (stereo not drawn) | 13
41 | COc1ccc(Br)cc1/C=C(\C(=O)O)c1ccc(S(=O)(=O)N2CCCCC2)s1 | 5.43
42 | CC(C)c1ccccc1NC(=O)Nc1ccc(F)cc1F | 8.94
43 | CC(=O)N(CCc1ccccc1)Cc1cc2cc(C)ccc2[nH]c1=O | 4.22
44 | CC1CC1C(=O)NCCc1ccc(Cl)cc1 (stereo not drawn) | 0.111

Row | SMILES | hERG current change (%, negative = inhibition) at 1uM [%]
45 | COC(=O)c1ccc(C2CC(=O)Nc3cc(OC)c(OC)cc32)cc1 (stereo not drawn) | 1.14
46 | O=C(CN1CCC(NC(=O)Nc2ccccc2)CC1)Nc1ccc([N+](=O)[O-])cc1 | -9.75
47 | O=C(Nc1sc(-c2ccccc2)cc1C(=O)O)c1ccccc1 | 14.5
48 | CC1C(OC(=O)CCC(=O)NC(C)(C)CO)O[C@H]2OC3(C)CC[C@H]4[C@H](C)CCC1C24OO3 (stereo partly drawn) | 14.3
49 | CCCCCCC(=O)Oc1cccc(N2C(=O)C3CCCCC3C2=O)c1 (stereo not drawn) | 11.8
50 | CCCCC/C=C\C[C@H](O)/C=C/c1cccc(C[C@H](O)CCCCO)n1 | 11.2
51 | O=C(CCN1C(=O)c2ccccc2C1=O)N1CCN(Cc2ccccc2)CC1 | 7.1
52 | CC(=O)NC(CC(=O)N(C)Cc1c(F)cccc1Cl)c1ccccc1 (stereo not drawn) | 11.9
53 | O=C(COC(=O)CCCNC(=O)c1ccc(Cl)cc1)NC1CC1 | 13
54 | CNC(=O)c1[nH]cnc1C(=O)N[C@@H](CCCCNC(=O)OC(C)(C)C)C(=O)OC(C)(C)C | 13.6
55 | CCOC(=O)CC(=O)CSc1ncnc2c1cnn2-c1ccccc1 | 6.25
56 | CCNC(=O)C1CC(=O)N(Cc2ccc3c(c2)OCO3)C(=Nc2ccc(F)cc2)S1 (stereo not drawn) | 11.6
57 | Nc1cc(Cl)ccc1Nc1ccncc1 | 7.92
58 | Cc1cccc(S(=O)(=O)N2CCC(CO)(Cc3ccccc3)CC2)c1 | 10.3
59 | CC1=CC2=NC(=O)/C(=C\c3cccn3CCOc3cccc(C)c3)C(=N)N2O1 | 13.7
60 | CCc1ccc(-n2c(=O)c3c(C)c(C)sc3n(CC(=O)NCC3CCCO3)c2=O)cc1 (stereo not drawn) | 6.87
61 | COc1cc2c(cc1NC(=O)C(C)OC(=O)C1CC(=O)N(Cc3ccco3)C1)oc1ccccc12 (stereo not drawn) | 13.5
62 | Cc1ccc(S(=O)(=O)N2CCN(Cc3nc4sc5c(c4c(=O)[nH]3)CCCC5)CC2)cc1 | 8.82
63 | O=C(CSc1ncn(-c2ccccc2)n1)N1CCN(c2ccccc2)CC1 | 4.85
64 | CCCCN(C)C(=O)c1ccc2c(c1)S(=O)(=O)c1ccccc1C2=O | 2.56
65 | Cc1cccn2cc(-c3cccc(S(=O)(=O)N4CC(C)OC(C)C4)c3)nc12 (stereo not drawn) | 20.8
66 | COc1ccccc1-c1oc2ccccc2c1-c1ccc2cc[nH]c2c1 | 11.6

Row | SMILES | hERG current change (%, negative = inhibition) at 1uM [%]
67 | CN1C(=O)CCC1(O)c1ccccc1 (stereo not drawn) | 5.04
68 | CCOC(=O)c1ccc(NC(=O)CCS(=O)(=O)Cc2ccccc2)cc1 | 10.8
69 | CCn1nc(NC(=O)COC)c2cc3cccc(C)c3nc21 | 11.8
70 | CC1Cc2ccccc2N1C(=O)CSc1nnc(CSc2ncccn2)n1C (stereo not drawn) | -9.35
71 | CN(C)c1ccc(C2(O)C(=O)c3ccccc3C2=O)cc1 | 12.5
72 | O=C(CCn1c(=O)[nH]c2ccsc2c1=O)N1CCN(c2cccc(Cl)c2)CC1 | -6.52
73 | OCCC1CN(Cc2cn[nH]c2C2CCCCC2)CCN1C1CCCCC1 (stereo not drawn) | 7.95
74 | C[C@H]1C(=O)N(C)CCN1C(=O)c1cccc(OC2CCN(CC(C)(C)C)CC2)c1 | 16.6
75 | CCOc1ccc(S(=O)(=O)N2CCCC(C(=O)NCc3ccccc3)C2)cc1 (stereo not drawn) | 3.16
76 | COc1cc(NC(=O)CN(C)Cc2cccc(F)c2)c(C)cc1[N+](=O)[O-] | 18.1
77 | CCCCn1nnnc1SCC(=O)NC1CCCCC1 | 17.6
78 | CC(C)(C)c1ccc(OCC(=O)NCCN2CCCC2)cc1.Cl | 0.612
79 | Cc1c(NC(=O)c2cccc(NC(=O)COc3ccccc3)c2)c(=O)n(-c2ccccc2)n1C | 16.1
80 | COc1ccc(NC(=O)CNC(=O)c2sc3ccccc3c2Cl)c(OC)c1 | 7.35
81 | COc1cccc(C=N[C@@H](CO)[C@@H](O)c2ccc([N+](=O)[O-])cc2)c1O | 5.58
82 | Cc1cc(C(=O)OCC(=O)N(C)C2CCS(=O)(=O)C2)c(C)n1-c1ccccc1 (stereo not drawn) | 6.27
83 | COc1ccc(-n2c(=O)[nH]cc(C(=O)Nc3ccc4c(c3)OCCO4)c2=O)cc1OC | -4.94
84 | CC(C)(C)c1ccc(OCCC(=O)OCC(=O)NC2CCCCC2)cc1 | 3.52
85 | COc1cc(C2Nc3ccc4ncccc4c3C3=C2C(=O)CCC3)ccc1O (stereo not drawn) | 16.9
86 | CC(=O)OCC1=C(C(=O)O)N2C(=O)C(NC(=O)Cn3nc(C(F)F)c(Cl)c3C)C2SC1 (stereo not drawn) | 8.75
87 | Cc1ccc(S(=O)(=O)CCc2nnc(NC(=O)C3CCCO3)s2)cc1 (stereo not drawn) | 12
